Results are given in words; binding and its absence hold for the method and conditions named. Binding seen in cells or lysates may run through a third protein. Some binding calls cover weakened binding; strength is not graded here.
Tests used:
[1] = biological target: STING, endogenous in THP-1 cells (human (endogenous in THP-1)) (UniProt Q86WV6); experiment: co-IP; endogenous proteins in THP-1 cell lysate; immunoprecipitated with anti-STING antibody (IgG as control), probed for HDAC6 and STING
[2] = biological target: Flag-tagged histone deacetylase 6 (HDAC6) (human) (UniProt Q9UBN7); experiment: co-IP; HEK293T cells co-transfected with tagged plasmids; lysed in IP buffer (20 mM Tris, pH 7.5, 150 mM NaCl, 1% Triton X-100) with protease/deacetylase/phosphatase inhibitors; anti-tag antibody (FLAG, HA) at 4 °C overnight, Protein A/G magnetic beads, Western blotting; in Fig. 4C with or without co-expressed Flag-HDAC6
[3] = biological target: HDAC6 Catalytic Domain 2 (CD2, aa 435-835), Flag-tagged (human) (UniProt Q9UBN7); experiment: as above

Chains of the proteins cited; added tags and fusions are not shown. Lines headed by an entry give the natural chain unless they say otherwise; changes in a name come on top. A line that says so, or that is headed by a name, gives the form on record, which may keep a tag or linker. Residues count along the entry.
UniProt Q86WV6: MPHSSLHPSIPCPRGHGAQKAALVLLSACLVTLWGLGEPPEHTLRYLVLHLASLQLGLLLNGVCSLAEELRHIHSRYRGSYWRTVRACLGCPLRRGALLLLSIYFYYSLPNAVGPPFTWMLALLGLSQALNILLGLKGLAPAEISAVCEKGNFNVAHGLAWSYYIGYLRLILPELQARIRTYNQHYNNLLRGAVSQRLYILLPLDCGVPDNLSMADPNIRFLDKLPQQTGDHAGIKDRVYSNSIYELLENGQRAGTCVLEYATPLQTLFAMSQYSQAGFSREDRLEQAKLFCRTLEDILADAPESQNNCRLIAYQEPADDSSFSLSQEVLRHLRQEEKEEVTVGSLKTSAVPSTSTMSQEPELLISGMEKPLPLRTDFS
UniProt Q9UBN7: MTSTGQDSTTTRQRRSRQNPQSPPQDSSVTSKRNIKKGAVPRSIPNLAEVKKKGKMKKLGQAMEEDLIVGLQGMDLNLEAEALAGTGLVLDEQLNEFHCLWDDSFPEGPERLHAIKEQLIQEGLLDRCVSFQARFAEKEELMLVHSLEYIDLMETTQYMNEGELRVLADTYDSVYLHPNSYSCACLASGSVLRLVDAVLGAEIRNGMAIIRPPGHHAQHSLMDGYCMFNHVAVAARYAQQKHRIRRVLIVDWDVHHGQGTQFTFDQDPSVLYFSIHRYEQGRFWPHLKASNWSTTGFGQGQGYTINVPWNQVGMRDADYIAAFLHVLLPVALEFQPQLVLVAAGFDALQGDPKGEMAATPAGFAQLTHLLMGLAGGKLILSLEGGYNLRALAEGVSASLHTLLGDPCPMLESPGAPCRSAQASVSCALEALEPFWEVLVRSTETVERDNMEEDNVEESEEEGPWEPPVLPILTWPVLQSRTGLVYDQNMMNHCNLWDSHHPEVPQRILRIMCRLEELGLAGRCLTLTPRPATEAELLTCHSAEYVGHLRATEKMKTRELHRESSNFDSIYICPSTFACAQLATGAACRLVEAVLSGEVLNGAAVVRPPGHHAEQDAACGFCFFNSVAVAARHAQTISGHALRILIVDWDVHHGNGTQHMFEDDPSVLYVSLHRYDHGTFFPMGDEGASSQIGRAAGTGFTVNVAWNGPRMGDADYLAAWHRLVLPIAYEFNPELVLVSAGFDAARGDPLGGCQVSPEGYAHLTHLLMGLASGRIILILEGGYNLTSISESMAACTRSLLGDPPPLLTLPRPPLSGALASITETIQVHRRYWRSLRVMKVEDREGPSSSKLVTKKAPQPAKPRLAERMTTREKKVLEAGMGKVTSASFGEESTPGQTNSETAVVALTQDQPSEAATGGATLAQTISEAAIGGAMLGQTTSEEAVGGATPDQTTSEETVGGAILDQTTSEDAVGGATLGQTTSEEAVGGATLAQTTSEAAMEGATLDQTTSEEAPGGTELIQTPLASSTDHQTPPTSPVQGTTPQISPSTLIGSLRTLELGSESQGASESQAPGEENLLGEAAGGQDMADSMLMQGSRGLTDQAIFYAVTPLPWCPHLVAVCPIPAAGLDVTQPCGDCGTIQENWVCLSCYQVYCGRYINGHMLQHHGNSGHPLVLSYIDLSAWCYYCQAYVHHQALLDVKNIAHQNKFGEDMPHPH
HDAC6 Catalytic Domain 2 (CD2, aa 435-835), Flag-tagged: residues 435-835 of Q9UBN7
UniProt Q8N884: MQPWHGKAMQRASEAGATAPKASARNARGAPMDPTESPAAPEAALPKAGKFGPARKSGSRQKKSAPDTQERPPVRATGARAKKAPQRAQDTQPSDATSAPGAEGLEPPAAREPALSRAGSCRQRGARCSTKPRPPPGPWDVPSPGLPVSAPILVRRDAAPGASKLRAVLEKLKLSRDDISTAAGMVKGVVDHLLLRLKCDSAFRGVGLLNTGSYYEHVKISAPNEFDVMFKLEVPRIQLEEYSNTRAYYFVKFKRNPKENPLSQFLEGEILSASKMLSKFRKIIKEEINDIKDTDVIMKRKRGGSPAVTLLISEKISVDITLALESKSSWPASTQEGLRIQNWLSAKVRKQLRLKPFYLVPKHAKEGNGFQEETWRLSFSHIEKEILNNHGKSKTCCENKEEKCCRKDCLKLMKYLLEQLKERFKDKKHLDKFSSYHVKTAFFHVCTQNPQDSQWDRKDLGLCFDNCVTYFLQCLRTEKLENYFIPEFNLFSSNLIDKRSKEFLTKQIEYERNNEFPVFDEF

## HDAC6, endogenous in THP-1 cells (from UniProt Q9UBN7 1-1215) (enzyme)
[1]
  binding: binds

## STING cGAMP-Binding Domain (CBD, aa 150-379), HA-tagged (from UniProt Q86WV6 150-379) (domain or fragment)
[2]
  binding: binds

## HA-tagged stimulator of interferon genes (STING), full length (from UniProt Q86WV6 1-379)
[3]
  binding: binds
[2]
  binding: binds

## cyclic GMP-AMP synthase (cGAS) (from UniProt Q8N884 1-522) (enzyme)
[2]
  binding: no binding
